Measured values reported in patent publication US5972894A, “Peptides having potassium channel opener activity” (Cytran, Inc., priority 1997, dated 1999).
Part of at least one peptide drawing is inferred or uncertain, most often the ends. Residues, ends and D or L forms follow the SMILES beside them.

Legend:
[1] = tested on: Isolated Rat Heart; test: Inotropic function of normal isolated rat heart, Langendorff perfusion
Source text: Rat heart specimens were obtained surgically from white random-bred male rats weighing approximately 250 g. The hearts were established in culture using retrograde heart perfusion according to the Langendorff method performed with a standard oxygenated (95% O2 and 5% CO2) Krebs-Henseleit solution through a glass aorta cannula. The retroperfusion pressure forces the aortic valves shut. In this way, the oxygenated solution passed only through the coronary vasculature of the heart such that both ventricles remain effectively empty. Perfusion conditions: An average constant perfusate flow rate of 15 to 25 ml/min was maintained with a constant perfusate pressure of 80 cm H2 O. Pressure Measurements: A latex balloon catheter connected with a pressure transducer ([…], Sweden) was inserted into the left ventricle of the heart to measure parameters of the inotropic function of the heart. The intraventricle pressure variation curve for the left ventricle was recorded with a polygraph. Experimental Protocol: GE and VT served as the test substances. After a 30-minute adaptation of the heart to the organ culture perfusion conditions, a set of basal (control) measurements was taken, as described in (i) through (v) below. […] See GOODMAN […] THE PHARMACOLOGICAL BASIS OF THERAPEUTICS 160 (Goodman et al., eds., 7th ed. 1985), incorporated herein by reference in its entirety for all purposes. Each dose of each respective test or reference substance was tested on four different rat hearts. The inotropic functions of each of the four rat hearts were evaluated by measuring: (i) the systolic pressure in the left ventricle ([…] diastolic pressure in the left ventricle ([…] evolving pressure (Pev. =[…]); (iv) the maximal rate of increase of left ventricle pressure (+dp/dtmax mm Hg/sec); and (v) the maximal rate of decrease of left ventricle pressure (-dp/dtmax mm Hg/sec). In addition, the heart rate (HR) of each heart was determined from the pressure variation recordings made of the left ventricle pressure.

[2] = tested on: rats; test: Early ischemic myocardial arrhythmias after coronary artery ligation; format: in vivo; details: for Number of Ventricular Extrasystoles / Overall Duration of Ventricular Tachycardia: 30 min after coronary occlusion
Protocol: White random-bred male rats weighing 200 g were given light ether anesthesia and were then immobilized and artificially ventilated. The descending branch of the left coronary artery of each rat was ligated. Immediately following ligation, a test or control substance was administered to each rat through the catheterized femoral vein, and an ECG recording was initiated (standard lead II) and maintained for the next 30 minutes.
GE and VT served as test substances and were administered to animals in the respective test groups at doses of 0.1, 1.0, and 10.0 mg/kg. The β-adrenergic blocking agent, propranolol (Obzidan, Germed, Germany), served as the positive control substance and was administered intravenously to each animal in the positive control group at a dose of 0.5 mg/kg. Physiological saline served as the negative control substance and was administered intravenously to animals in the negative control group. Each dose of each test or control substance was tested separately on a group of nine animals.
The following parameters were evaluated based upon the ECG recordings: (i) the number of ventricular extrasystoles that occurred within a 30-minute observation period following coronary occlusion; (ii) the overall cumulative duration of ventricular tachycardias (i.e., the summation of duration of individual paroxysmal ventricular rhythm disturbances in seconds) occurring within the 30-minute observation period; and (iii) the overall duration (in seconds) of the ventricular fibrillations occurring within the 30-minute observation period. The data were processed electronically and statistical comparisons were made between the values obtained from the animals in the experimental test groups and those in the different respective control groups.

**Q.** Which results are given for `CC(C)[C@H](N)C(=O)N[C@H](C(=O)O)[C@@H](C)O` [VT, L-Valine-L-Threonine] (H-Val-Thr-OH)?
**A.** effect on inotropic function and heart rate of normal heart ([1]; 10, 100, 1000 μg): neither GE nor VT had a significant effect; +dp/dtmax Subst. Level ([1]; dose 10 mg (mg = microgram)): 1788 mm Hg/sec; -dp/dtmax % of Basal Level ([1]; dose 10 mg (mg = microgram)): 101%; -dp/dtmax Subst. Level ([1]; dose 10 mg (mg = microgram)): 1045 mm Hg/sec; HR % of Basal Level ([1]; dose 10 mg (mg = microgram)): 100%; HR abs, Subst. Level ([1]; dose 10 mg (mg = microgram)): 199 hb/min; Pdiast % of Basal Level ([1]; dose 10 mg (mg = microgram)): 100%; Pdiast abs, Subst. Level ([1]; dose 10 mg (mg = microgram)): 10 mm Hg; Pev % of Basal Level ([1]; dose 10 mg (mg = microgram)): 101%; Pev Subst. Level ([1]; dose 10 mg (mg = microgram)): 93 mm Hg; Psyst % of Basal Level ([1]; dose 10 mg (mg = microgram)): 102%; +dp/dtmax % of Basal Level ([1]; dose 100 mg (mg = microgram)): 105%; +dp/dtmax Subst. Level ([1]; dose 100 mg (mg = microgram)): 1789 mm Hg/sec; -dp/dtmax % of Basal Level ([1]; dose 100 mg (mg = microgram)): 107%; -dp/dtmax Subst. Level ([1]; dose 100 mg (mg = microgram)): 1198 mm Hg/sec; HR % of Basal Level ([1]; dose 100 mg (mg = microgram)): 102%; HR abs, Subst. Level ([1]; dose 100 mg (mg = microgram)): 914 hb/min; Pdiast % of Basal Level ([1]; dose 100 mg (mg = microgram)): 100%; Pdiast abs, Subst. Level ([1]; dose 100 mg (mg = microgram)): 10 mm Hg; Pev % of Basal Level ([1]; dose 100 mg (mg = microgram)): 105%; Pev Subst. Level ([1]; dose 100 mg (mg = microgram)): 98 mm Hg; Psyst % of Basal Level ([1]; dose 100 mg (mg = microgram)): 106%; Psyst abs, Subst. Level ([1]; dose 100 mg (mg = microgram)): 108 mm Hg; +dp/dtmax % of Basal Level ([1]; dose 1000 mg (mg = microgram)): 102%; +dp/dtmax Subst. Level ([1]; dose 1000 mg (mg = microgram)): 1783 mm Hg/sec; -dp/dtmax % of Basal Level ([1]; dose 1000 mg (mg = microgram)): 104%; -dp/dtmax Subst. Level ([1]; dose 1000 mg (mg = microgram)): 1055 mm Hg/sec; HR % of Basal Level ([1]; dose 1000 mg (mg = microgram)): 101%; HR abs, Subst. Level ([1]; dose 1000 mg (mg = microgram)): 195 hb/min; Pdiast % of Basal Level ([1]; dose 1000 mg (mg = microgram)): 100%; Pdiast abs, Subst. Level ([1]; dose 1000 mg (mg = microgram)): 10 mm Hg; Pev % of Basal Level ([1]; dose 1000 mg (mg = microgram)): 102%; Pev Subst. Level ([1]; dose 1000 mg (mg = microgram)): 91 mm Hg; Psyst % of Basal Level ([1]; dose 1000 mg (mg = microgram)): 102%; Psyst abs, Subst. Level ([1]; dose 1000 mg (mg = microgram)): 102 mm Hg; Number of Ventricular Extrasystoles ([2]; 0.1 mg/kg i.v.): 131.78; Number of Ventricular Extrasystoles ([2]; 1.0 mg/kg i.v.): 51.33; Overall Duration of Ventricular Tachycardia ([2]; 1.0 mg/kg i.v.): 88.56 s; decrease in the number of ventricular extrasystoles as compared with the negative control group ([2]; 10 mg/kg): 3 fold; Number of Ventricular Extrasystoles ([2]; 10.0 mg/kg i.v.): 18.00; Overall Duration of Ventricular Tachycardia ([2]; 10.0 mg/kg i.v.): 46.58 s; effect on overall duration of ventricular tachycardias ([2]; all of the tested doses): reduced the overall duration of ventricular tachycardias
